# Measured values: article PMC4336329 (PLoS ONE, 2015)
# The campaign covered roughly 310,000 compounds. About 14,000 (4.5%) showed an effect of 50% or more. The effect is printed as a negative number. This is one part of the list.
# Biological target: human ether-à-go-go-related gene (hERG) potassium channel (human, UniProt Q12809)
# Assay: primary screen, population patch clamp on CHO cells stably expressing hERG
# 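Further: peak tail current of the secondary pulse compared with the same well before compound.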
# human ether-à-go-go-related gene (hERG) potassium channel, sequence (Q12809 whole entry, looked up): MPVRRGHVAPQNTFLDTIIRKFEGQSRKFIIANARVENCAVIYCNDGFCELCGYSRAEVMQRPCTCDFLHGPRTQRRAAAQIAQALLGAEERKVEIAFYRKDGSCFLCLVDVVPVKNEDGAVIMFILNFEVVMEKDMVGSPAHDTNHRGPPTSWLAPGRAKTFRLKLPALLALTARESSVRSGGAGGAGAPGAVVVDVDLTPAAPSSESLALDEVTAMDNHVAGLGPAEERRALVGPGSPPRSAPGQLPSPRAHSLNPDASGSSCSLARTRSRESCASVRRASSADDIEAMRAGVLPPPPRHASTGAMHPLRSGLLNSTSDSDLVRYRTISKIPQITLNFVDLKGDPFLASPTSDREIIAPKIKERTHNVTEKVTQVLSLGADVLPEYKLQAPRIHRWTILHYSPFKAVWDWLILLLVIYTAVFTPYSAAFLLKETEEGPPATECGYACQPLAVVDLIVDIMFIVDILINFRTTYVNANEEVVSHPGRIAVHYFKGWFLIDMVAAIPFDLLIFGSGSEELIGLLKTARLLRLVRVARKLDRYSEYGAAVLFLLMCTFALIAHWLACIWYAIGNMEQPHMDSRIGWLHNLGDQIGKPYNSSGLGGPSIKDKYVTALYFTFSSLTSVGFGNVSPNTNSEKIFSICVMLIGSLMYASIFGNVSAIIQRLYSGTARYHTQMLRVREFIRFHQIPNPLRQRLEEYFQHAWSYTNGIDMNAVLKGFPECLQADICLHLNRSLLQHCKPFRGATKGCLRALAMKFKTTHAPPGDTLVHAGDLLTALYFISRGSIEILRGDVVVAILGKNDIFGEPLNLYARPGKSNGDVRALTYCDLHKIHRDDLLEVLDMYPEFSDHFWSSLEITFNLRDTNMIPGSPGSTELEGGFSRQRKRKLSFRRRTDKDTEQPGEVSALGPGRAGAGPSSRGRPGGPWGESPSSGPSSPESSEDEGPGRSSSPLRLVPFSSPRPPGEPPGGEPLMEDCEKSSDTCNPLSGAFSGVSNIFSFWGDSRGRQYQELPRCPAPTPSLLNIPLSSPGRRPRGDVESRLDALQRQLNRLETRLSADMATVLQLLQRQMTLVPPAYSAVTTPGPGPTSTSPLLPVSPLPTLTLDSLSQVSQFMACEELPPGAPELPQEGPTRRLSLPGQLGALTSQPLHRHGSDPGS
row,Compound,"hERG current change (%, negative = inhibition) at 10uM"
1,C=CCOn1c(C)c(C(C)=O)c2c3nonc3ccc21,7.01%
2,O=C(CCN1C(=O)/C(=C\c2ccccc2)SC1=S)NNC(=O)c1ccccc1O,11%
3,CSc1ccc(/C=C2\NC(=O)NC2=O)cc1,5.37%
4,Clc1ccc(Cl)c(OCCCCN2CCCCC2)c1,-59.2%
5,COc1cc(C(=O)NC(C)c2ccccc2)ccc1OCC(=O)N1CCOCC1 (centres unmarked),2.96%
6,COc1ccc(C2NC(=O)c3ccccc3N2)cc1OC (centres unmarked),13%
7,CCCCOc1ccc(C(=O)N2CCCCCC2)cc1,3.1%
8,Cc1ccc2[nH]c(-c3ccccc3)c(CN3CCCC3)c(=O)c2c1,-12.2%
9,Nc1[nH]nc2c1NN(c1ccc(Cl)cc1Cl)N2,12.4%
10,CCCS(=O)(=O)N1CCCC(C(=O)NCCc2ccc(Cl)cc2)C1 (centres unmarked),-17.9%
11,O=C(Nc1ccc2c(c1)OCO2)C1CC(=O)N(c2cccc(Cl)c2)C1 (centres unmarked),23.9%
12,O=C(Nc1cccc(C(=O)O)c1)/C(=C\C=C\c1ccccc1)NC(=O)c1ccccc1,10.3%
13,CCc1nc(SCC(=O)Nc2ccc(C(=O)O)cc2)n[nH]1,5.9%
14,Cc1c(C)n(C(=O)CSc2ncn[nH]2)c2ccccc12,-7.08%
15,C=CCn1c(-c2cc(-c3ccccc3)sc2N)n[nH]c1=S,9.13%
16,CCOC(=O)c1ccccc1NC(=O)COC(=O)C1CCN(S(=O)(=O)c2ccccc2C(=O)OC)CC1,2.86%
17,Cc1nc(NCc2ccc3c(c2)OCO3)c2oc3ccccc3c2n1,-15.3%
18,Clc1cccc(CN2CCCCCCC2)c1Cl,-9.4%
19,O=C(CCC1CCCN(C(=O)c2ccc3c(c2)OCCO3)C1)NCc1ccccc1F (centres unmarked),15.2%
20,CCOC(=O)Cc1cc(=O)n2[nH]c(-c3ccccc3)c(-c3ccccc3)c2n1,-18%
21,Cc1cccc(NC(=O)CN2C(=O)N/C(=C\c3cccn3-c3cccc(C(=O)O)c3)C2=O)c1,17.4%
22,COC(=O)c1c(O)cc(C(C)(C)C)n(-c2ccccc2)c1=O,5.99%

row,Compound,"hERG current change (%, negative = inhibition) at 10uM"
1,COC(=O)c1c(SCC(=O)Nc2ccc(C)c(C)c2)nc(=O)[nH]c1C,2.16%
2,COCCN(C(=S)Nc1ccc(C)c(C)c1)C(C)c1ccco1 (centres unmarked),-6.21%
3,CCCCN(C(=O)c1ccc([N+](=O)[O-])o1)c1c(N)n(CC(C)C)c(=O)[nH]c1=O,-8.74%
4,COc1ccc(S(=O)(=O)N(CC(=O)NC(C)C)Cc2ccccc2)cc1,-8.62%
5,CCCCC1CCC(C(=O)OCC(=O)N(CCOC)c2c(N)n(Cc3ccccc3)c(=O)[nH]c2=O)CC1 (centres unmarked),22.3%
6,COc1ccc(CCC(=O)OCC(=O)NCc2ccccc2)cc1,7.86%
7,O=C(Nc1ccccc1N1CCCC1)c1ccccc1Cl,6.75%
8,COc1ccc(NC(=O)CC2C(=O)N(Cc3ccco3)C(=S)N2C(C)C)cc1 (centres unmarked),-17.4%
9,Cc1ccc(C(=O)OCc2nc3ccsc3c(=O)[nH]2)o1,4.57%
10,CC(C(=O)NCC1CCCO1)N1C(=O)C2C3CC(C(Br)C3Br)C2C1=O (centres unmarked),5.46%
11,C/C=C\C=C\C(=O)N1CC2(CC(c3cccc(NC(=O)/C(C)=C\C)c3)=NO2)C[C@H]1C(N)=O (some centres unmarked),-1.59%
12,O=C(COC(=O)c1n[nH]c2ccccc12)NC(=O)NC1CCCC1,8.1%
13,Cc1ccc(S(=O)(=O)NCc2ccc(C(=O)NCCCN3CCN(C)CC3)cc2)cc1,19.3%
14,COC(=O)CN(C#N)c1nc(SC)nc(N(C)C)n1,6.74%
15,CCn1nnnc1SCC(=O)N1CCN(Cc2ccc3c(c2)OCCO3)CC1,10.4%
16,COc1ccc(-c2nc3c4c(ncn3n2)-c2ccccc2CC42CCCC2)cc1,14%
17,CCS(=O)(=O)N1CCCC(C(=O)NCCN2CCC(Cc3ccccc3)CC2)C1 (centres unmarked),-59.1%
18,CCC1CCCCN1CCCNC(=O)c1c(O)nc2c(C)cccn2c1=O (centres unmarked),-6.16%
19,COc1cccc(C(=O)Nc2ccc(NC(=O)C3CC3)cn2)c1,4.31%
20,O=C(CCS(=O)(=O)c1ccccc1)NC12CC3CC(CC(C3)C1)C2,2.33%
21,CCOC(=O)CSc1nnc(NC(=O)c2cccc(S(=O)(=O)N3CCCCCC3)c2)s1,2.85%
22,COc1ccccc1NC(=O)CSc1nnc(C)o1,7.83%
